Our source for the GI50 and TGI values is PubChem BioAssay (NCI).

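48-hour exposure; five concentrations; linearly interpolated endpoints. Here, GI50 denotes the concentration required for 50% inhibition of growth. TGI marks complete inhibition of growth.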

The assay deals with NCI-H322M lung. Description: NCI tumour cell line growth inhibition, 48 h.
On to `CCO/C=N/C1=C(C#N)C(c2ccc(F)cc2)c2sc3c(C)cccc3c2O1` (stereo not drawn), for which the GI50 was 0.904 µM and the TGI was 21.3 µM.

As for `Cc1cc2c(-c3ccc(NC(=O)[C@H](N)CC(C)(C)C)cc3C)ccnc2[nH]1`, the GI50 is 14.3 µM and the TGI amounted to 27.6 µM.

Regarding `CN(C)CCCOc1c2ccccc2nc2c1oc1ccc(Cl)cc12`, the GI50 was 2.89 µM and the TGI worked out at 12 µM.

Consider `Cc1ccc(C2CC(c3ccc(Nc4nc(NCCO)nc(Nc5ccc(Cl)cc5)n4)cc3)=Nc3c(N)nc(N)nc3N2)cc1` (stereo not drawn), for which the GI50 is 1.59 µM and the TGI turned out to be 2.94 µM.
